Measurements published in the supplement of paper PMC10126150.
Sequences with one replicate were seen in a single cluster, so their values are uncertain.

What follows are sequences tested on ATP (assay: switch fluorescence ratio, 500 uM ATP over buffer (Cy3 cluster intensity, sum of 5 cycles each) (fold (ratio)); higher = stronger signal-on switching upon ATP binding; sequences stand for … in TCGTCGGCAGCGTCAGATGTGTATAAGAGACAGTTTTTTTTTTTTTTTTTTTTTTTTT…TC). Details: aptamer strand: ATP DNA aptamer (quencher-CACCTGGGGGAGTATTGCGGAGGAAGG + anchor), 100 nM annealed; ATP concentration: 500 uM; one replicate.
Procedure, shortened: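 Five buffer/ATP imaging cycles were run on Cy3-labelled switching-strand clusters on a modified Illumina MiSeq flow-cell, with NaOH stripping and re-annealing between cycles. In each cycle, clusters annealed to 100 nM quencher-labelled ATP aptamer were imaged in selection buffer, then after 15 min with 500 uM ATP at 22 °C. Per cluster, the fluorescence ratio is summed target-cycle over summed buffer-cycle Cy3 intensity, averaged per switch-domain sequence. Only clusters within 100-1000 RFU were kept.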
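Further: ATP exposure 15 min at 22 °C before imaging.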

Question: AGGAAGTG was tested. Which switch fluorescence ratio did it give?
Answer: 0.962

Question: Which switch fluorescence ratio does the source give for TATTGCTGGG here?
Answer: 1.02

Question: With TTGAGGACAC as the sequence, how does the switch fluorescence ratio read?
Answer: 0.975

Question: With TTAAATCGGT as the sequence, how does the switch fluorescence ratio read?
Answer: 1.01

Question: How did the switch fluorescence ratio turn out when CGTGTCCCTC was run?
Answer: 1.01

Question: Which switch fluorescence ratio does the source give for ATGGTGGTTA here?
Answer: 1.01

Question: CCGAACATCG was tested. Which switch fluorescence ratio did it give?
Answer: 1.11

Question: For TCTTGGTTAT, which switch fluorescence ratio is on record?
Answer: 0.967

Question: For GTGTTCATTG, which switch fluorescence ratio is on record?
Answer: 0.966

Question: ATTAGCCACG was tested. Which switch fluorescence ratio did it give?
Answer: 1.04

Question: Which switch fluorescence ratio does the source give for CTTTGCAGGA here?
Answer: 1.02

Question: TTCGTAGTTC was tested. Which switch fluorescence ratio did it give?
Answer: 1.08

Question: Which switch fluorescence ratio does the source give for TCCAGCTCAG here?
Answer: 0.984

Question: Which switch fluorescence ratio does the source give for GCCCTGCATA here?
Answer: 1.04

Question: How did the switch fluorescence ratio turn out when CTGGATTTTC was run?
Answer: 1

Question: Which switch fluorescence ratio does the source give for AACCTTCCAC here?
Answer: 2.86

Question: How did the switch fluorescence ratio turn out when GTTTCTTTTC was run?
Answer: 1.03

Question: How did the switch fluorescence ratio turn out when AGCACTTCGG was run?
Answer: 1.01

Question: For GAAGCGAAGG, which switch fluorescence ratio is on record?
Answer: 1.05

Question: GGTGGCGTGT was tested. Which switch fluorescence ratio did it give?
Answer: 1.01

Question: Which switch fluorescence ratio does the source give for GGCGACTGGA here?
Answer: 1.02

Question: For GAGAGCGCAT, which switch fluorescence ratio is on record?
Answer: 0.981

Question: With TGCTAGCGGT as the sequence, how does the switch fluorescence ratio read?
Answer: 1.03

Question: Which switch fluorescence ratio does the source give for GGACCAGGCT here?
Answer: 0.992

Question: For GTGCCACGGT, which switch fluorescence ratio is on record?
Answer: 0.993

Question: How did the switch fluorescence ratio turn out when GACTTAACGC was run?
Answer: 1.13

Question: How did the switch fluorescence ratio turn out when AATAGCCAAC was run?
Answer: 1.03

Question: With CAGAGTAATC as the sequence, how does the switch fluorescence ratio read?
Answer: 1.16

Question: CAGAATTTGT was tested. Which switch fluorescence ratio did it give?
Answer: 1.03

Question: For AAATGAGTAC, which switch fluorescence ratio is on record?
Answer: 0.936

Question: How did the switch fluorescence ratio turn out when GGGGTCTTAA was run?
Answer: 0.981

Question: With TTCATTCCA as the sequence, how does the switch fluorescence ratio read?
Answer: 1.06

Question: How did the switch fluorescence ratio turn out when CGTGGGGCCA was run?
Answer: 0.947

Question: How did the switch fluorescence ratio turn out when TCGTGTCTCT was run?
Answer: 1.01

Question: For TCTAGGGACG, which switch fluorescence ratio is on record?
Answer: 0.942

Question: For TCCAGATTT, which switch fluorescence ratio is on record?
Answer: 0.953

Question: For TTATGCGAAA, which switch fluorescence ratio is on record?
Answer: 0.994

Question: With TATCAGATTC as the sequence, how does the switch fluorescence ratio read?
Answer: 1.02

Question: GATAATGTGG was tested. Which switch fluorescence ratio did it give?
Answer: 1

Question: For GAGAGCAGTA, which switch fluorescence ratio is on record?
Answer: 1.12

Question: AAACCTAGGG was tested. Which switch fluorescence ratio did it give?
Answer: 1.01

Question: Which switch fluorescence ratio does the source give for CGGATGACTT here?
Answer: 1.01

Question: Which switch fluorescence ratio does the source give for CTGGCGCCCG here?
Answer: 0.993

Question: TGAGGAACGG was tested. Which switch fluorescence ratio did it give?
Answer: 0.957

Question: How did the switch fluorescence ratio turn out when GTCGGGAACT was run?
Answer: 1.02

Question: ACGCAGTCGA was tested. Which switch fluorescence ratio did it give?
Answer: 1.19

Question: Which switch fluorescence ratio does the source give for CTTAGACAG here?
Answer: 0.962

Question: How did the switch fluorescence ratio turn out when GTTGGAGGCC was run?
Answer: 0.986

Question: With TATAGTCGGC as the sequence, how does the switch fluorescence ratio read?
Answer: 1.01

Question: Which switch fluorescence ratio does the source give for TCGGTGAACT here?
Answer: 0.998

Question: For AGCAAAGCTC, which switch fluorescence ratio is on record?
Answer: 1.05

Question: For ATACTGAGGG, which switch fluorescence ratio is on record?
Answer: 1.04

Question: TCGCTGGTCA was tested. Which switch fluorescence ratio did it give?
Answer: 0.943

Question: How did the switch fluorescence ratio turn out when TCACGGATCT was run?
Answer: 0.993

Question: How did the switch fluorescence ratio turn out when AGGCAAAATG was run?
Answer: 0.963

Question: Which switch fluorescence ratio does the source give for AGGTACTGGA here?
Answer: 1.03

Question: With ACACATAATT as the sequence, how does the switch fluorescence ratio read?
Answer: 1.11

Question: For AATAGGGAGA, which switch fluorescence ratio is on record?
Answer: 1

Question: For TAAGGTCCAA, which switch fluorescence ratio is on record?
Answer: 0.995

Question: How did the switch fluorescence ratio turn out when AATGACGTTT was run?
Answer: 1.05

Question: For AGGTTTGCAG, which switch fluorescence ratio is on record?
Answer: 1.06

Question: ATTCGCGTAG was tested. Which switch fluorescence ratio did it give?
Answer: 1.02

Question: How did the switch fluorescence ratio turn out when CAAACCGTCG was run?
Answer: 1.11

Question: With GGACTCTAG as the sequence, how does the switch fluorescence ratio read?
Answer: 0.981

Question: With CTCGGTTGGA as the sequence, how does the switch fluorescence ratio read?
Answer: 1.01

Question: For AATCCGAATT, which switch fluorescence ratio is on record?
Answer: 1.03

Question: For TTATTAGAAT, which switch fluorescence ratio is on record?
Answer: 0.941

Question: TTCGCAAAAG was tested. Which switch fluorescence ratio did it give?
Answer: 3.14

Question: For TCGTGTTTAA, which switch fluorescence ratio is on record?
Answer: 0.995

Question: How did the switch fluorescence ratio turn out when TATCTTGTAT was run?
Answer: 1.08

Question: For TCAATGCGCA, which switch fluorescence ratio is on record?
Answer: 0.947

Question: TTTGAGAGAA was tested. Which switch fluorescence ratio did it give?
Answer: 1.06

Question: CACCGCTGTT was tested. Which switch fluorescence ratio did it give?
Answer: 1.53

Question: How did the switch fluorescence ratio turn out when TCAAAGAGCA was run?
Answer: 1.02

Question: For TCGACAAATT, which switch fluorescence ratio is on record?
Answer: 0.99

Question: With CTTGATCTGT as the sequence, how does the switch fluorescence ratio read?
Answer: 1.01
